For 96 compounds, inhibition results are on record in PubChem BioAssay AID485344 (National Center for Advancing Translational Sciences (NCATS), 2010).

Values joined by “and” are separate entries in the source; they are usually repeats but may differ in a detail not shown here. Equal entries are not always repeated. About 6,900 (2%) of roughly 340,000 compounds were called active. Rule as the data show it: active = inhibition above about 30%; inactive = below that, where a call was filed. The entries are a selection whose mix differs from that of the whole data set. Where no call is shown, the source filed none.

One may read the inhibition as the change of the read-out against control, counted positive when it falls.

Sequence of UniProt P14416 (P14416 whole entry, looked up): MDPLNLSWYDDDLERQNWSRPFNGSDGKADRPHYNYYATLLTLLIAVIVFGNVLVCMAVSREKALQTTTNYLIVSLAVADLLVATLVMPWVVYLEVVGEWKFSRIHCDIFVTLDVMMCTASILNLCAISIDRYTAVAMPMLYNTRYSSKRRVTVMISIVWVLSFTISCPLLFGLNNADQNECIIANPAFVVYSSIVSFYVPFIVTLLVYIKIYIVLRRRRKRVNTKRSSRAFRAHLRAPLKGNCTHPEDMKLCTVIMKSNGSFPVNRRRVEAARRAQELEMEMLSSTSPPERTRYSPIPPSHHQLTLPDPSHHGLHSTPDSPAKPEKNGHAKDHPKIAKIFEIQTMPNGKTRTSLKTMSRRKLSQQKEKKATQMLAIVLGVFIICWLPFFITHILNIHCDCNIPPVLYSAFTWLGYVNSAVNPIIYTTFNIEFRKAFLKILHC

This assay deals with D(2) dopamine receptor (Homo sapiens) (UniProt P14416). Nature of the assay: HTS Assay for Allosteric Antagonists of the Human D2 Dopamine Receptor: Primary Screen for Antagonists. Also: 0% is about no effect. The note with it: HEK293 TREx D2 cells, calcium flux, dopamine EC80; at 10 µM; stronger effect = higher value. The procedure, abridged:
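HEK293 T-REx D2 cells, tet-induced, calcium dye no-wash. Cpd pintool add, 180 s kinetic, then EC80 DA, 180 s kinetic. Ca flux read.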
For orientation: A change in cytosolic calcium serves as a functional read-out for many receptors and channels.
For `Cc1cc(S(=O)(=O)C(CNC(=O)c2ccc(OC(C)C)cc2)c2cccs2)ccc1F` (stereo unspecified), the inhibition was 2.75%.

Take `Cc1nc2cccnc2n1C1CCN(S(C)(=O)=O)CC1`: the inhibition is 7.41%.

As to `NCc1nc2cccnc2n1Cc1ccccc1Cl`, the inhibition came out at 19.2%.

For `COc1ccccc1CNC(=O)CCc1c(C)nn(-c2ccc(N3CCOCC3)nn2)c1C`, the inhibition was found to be 7.16%.

`CCc1ccc(NC(=O)CCC(=O)Nc2nnc(C(C)C)s2)cc1`: the inhibition is active: 43.2%.

Consider `COc1ccc(NC(=O)CSc2nc3c([nH]c4ccccc43)c(=O)n2-c2ccccc2)c(OC)c1`, for which the inhibition was determined as 0.542%.

Take `O=C(NCc1ccco1)c1ccc2c(c1)N(Cc1ccccc1)C(=O)c1ccccc1S2(=O)=O`: the inhibition amounted to 13.9%.

As for `COc1ccc(NC(=O)N(CCC(C)C)C(C)c2cccs2)c(OC)c1` (stereo unspecified), the inhibition was found to be 16.1%.

Take `Cc1ccc(C2CCN(C(=O)c3cnn(-c4cccc(Cl)c4)c3C3CCN(C(=O)OC(C)(C)C)CC3)C2)cc1` (stereo unspecified): the inhibition was 6.99%.

On to `Cc1cc(=O)[nH]c2nnc(SCC(=O)Nc3ccc(OC(F)(F)F)cc3)n12`, for which the inhibition is -25.1%.

Take `COc1ccc(OC)c(NC(=O)c2cc(-c3ccc(Cl)s3)nc3ccccc23)c1`: the inhibition was determined as 0.693%.

On to `CC1CCCC(C)N1C(=O)c1ccc(S(=O)(=O)NCc2ccco2)cc1` (stereo unspecified), for which the inhibition is active: 36.7%.

As for `O=[N+]([O-])c1ccc(CNc2ccc(Cl)cc2)s1`, the inhibition was active: 95.9%.

On to `CCOC(=O)CNc1nc(Oc2ccc(=O)n(C)n2)nc(N(CC)CC)n1`, for which the inhibition is -2.15%.

In the case of `COc1ccc(N2CCN(Cc3nc4c(c(=O)[nH]c(=O)n4C)n3Cc3ccc(Cl)cc3)CC2)cc1`, the inhibition came out at 16.3%.

Consider `Cc1cccc(-c2nc(SCC(=O)N3CCc4ccccc43)c3c(=O)n(C)c(=O)n(C)c3n2)c1`, for which the inhibition turned out to be 4.51%.

As for `CCOc1ccc(C(=O)NCc2ccncc2)cc1OCC`, the inhibition was active: 34.4%.

As to `COc1cccc2c1ncc1c(-c3ccc(C)cc3)nn(-c3cccc([N+](=O)[O-])c3)c12`, the inhibition came out at 0.187%.

Regarding `CCOc1ccc(-n2c(SCC(=O)N3CCc4ccccc43)nc3c([nH]c4ccccc43)c2=O)cc1`, the inhibition came out at 1.4%.

With `Cc1cc(C)cc(NC(=O)C(=O)NCC(c2ccc3c(c2)OCO3)N2CCN(C)CC2)c1` (stereo unspecified), the inhibition is -18.7%.

For the compound `COc1ccc(NC(=O)Cn2c(=O)c(-c3cc(C)ccc3NC(C)=O)nc3ccccc32)c(OC)c1`, the inhibition came to 18.1%.

For the compound `CCCN(Cc1cccs1)C(=O)Nc1ccc(OCC)cc1`, the inhibition was determined as 9.36%.

For the compound `Cc1ccccc1Cn1ccc(NC(=O)c2nn(C)cc2[N+](=O)[O-])n1`, the inhibition is active: 31%.

Turning to `Cc1ccc(CNC(=O)c2nc(SCc3ccccc3F)ncc2Cl)cc1`, the inhibition was 22.7%.

Regarding `CCOC(=O)c1ccccc1NC(=O)CSc1nc2ccncc2[nH]1`, the inhibition worked out at 13.2%.

`O=C(NCc1ccco1)c1ccc(Cn2c(SCc3ccc(F)cc3)nc3cccnc32)cc1`: the inhibition came to 5.94%.

In the case of `Cc1ccc2nc(N3CCC(C(=O)N4CCN(c5cccc(C)c5C)CC4)CC3)[nH]c2c1`, the inhibition was -13.5%.

As for `CC1CCCN(C(=O)c2cc3c(=O)n(C)c4ccccc4c3s2)C1` (stereo unspecified), the inhibition is -3.03%.

`COc1ccc(C2C(C(N)=O)=C(C)Nc3nc(SCc4ccccc4Cl)nn32)cc1OC` (stereo unspecified): the inhibition is -5.26%.

Take `CCOc1ccc(C(=O)NCc2nc3cccnc3n2Cc2ccc(F)cc2)cc1OCC`: the inhibition was -1.83%.

For `COc1ccc(-n2c3c(cc(-c4nc(-c5ccc(C)cc5)cs4)c2=O)C(=O)CC(C)(C)C3)cc1`, the inhibition amounted to 8.22%.

`CC(C)C(=O)NCC(c1ccc2c(c1)OCO2)N1CCN(c2ccccc2F)CC1` (stereo unspecified): the inhibition amounted to 6.37%.

For `COc1ccccc1C(=O)Nc1ccc2oc(-c3cccc(Cl)c3Cl)nc2c1`, the inhibition was -8.76%.

Turning to `CCOC(=O)c1ccc(N2C(=O)c3n[nH]c(C)c3C2c2cccc(Br)c2)cc1` (stereo unspecified), the inhibition was -16.5%.

On to `COc1ccc(CNC(=O)Cn2nnc(-c3ccc(C(F)(F)F)cc3)n2)cc1`, for which the inhibition was -25%.

`NC(=O)c1ccc(NC(=O)CN2CCN(c3ccccc3)CC2)cc1`: the inhibition is active: 62.9%.

As to `COc1ccc(C(=O)c2cn(Cc3ccccc3F)c3cc4c(cc3c2=O)OCO4)cc1`, the inhibition amounted to 2.23%.

With `O=c1cc(-c2ccccc2)n2c(SCc3ccc(Cl)cc3)nnc2[nH]1`, the inhibition is 21%.

`CN(C)CCCN1c2ccccc2Sc2ccc(Cl)cc21`: the inhibition was active: 76.5% and active: 85.7%.

On to `Cc1cc(C)cc(OC(=O)c2cc(-c3ccc4c(c3)OCCO4)on2)c1`, for which the inhibition was -2.54%.

Regarding `Nc1nc(NCCc2ccccc2)nc(NCc2ccccc2)c1[N+](=O)[O-]`, the inhibition was active: 45.2%.

Take `COc1ccc(/C=C/c2nc(-c3ccccc3O)n(-c3ccccc3)n2)cc1OC`: the inhibition was -5.3%.

Take `CCC(=O)N1CCc2cc(S(=O)(=O)NCCC(=O)NC(C)c3ccccc3)ccc21` (stereo unspecified): the inhibition is -5.03%.

Take `CN1C2=C(C#N)C(c3ccccc3)(C(F)(F)F)NC(=O)N2c2ccccc21` (stereo unspecified): the inhibition is active: 32.2%.

In the case of `CC(=O)c1ccc(NC(=O)C(Cc2ccccc2)NS(=O)(=O)c2ccc3c(c2)CCC(=O)N3)cc1` (stereo unspecified), the inhibition is 22.5%.

Take `O=C(C1CCN(S(=O)(=O)c2cccc3nonc23)CC1)N1CCN(c2ccc(F)cc2)CC1`: the inhibition was determined as 2.04%.

Take `CC(=O)c1cccc(NC(=O)c2ccc3c(c2)CCCC3)c1`: the inhibition was active: 32.9%.

For the compound `CCOc1ccc(CNC(=O)CCS(=O)(=O)c2cc3c4c(c2)CCN4C(=O)CC3)cc1`, the inhibition was -1.31%.

Consider `CCOC(=O)c1c(C)oc2ncnc(Nc3ccc(CC)cc3)c12`, for which the inhibition was -7.96%.

As for `CC1CCN(C(=O)CN2CCSc3ccc(S(=O)(=O)N(C)C)cc32)CC1`, the inhibition was -0.986%.

As to `Cc1cccc(OCC(=O)OCc2cc(=O)n3nc(C4CC4)sc3n2)c1`, the inhibition is -0.0203%.

With `O=C(NCc1ccccc1)c1cccc(Nc2nc3ccccc3n3nnnc23)c1`, the inhibition is 1.08%.

As for `CCOC(=O)Cc1c(C)nc2c(-c3ccc(OC)c(OC)c3)c(C)nn2c1C`, the inhibition was -2.5%.

Take `COc1ccccc1N1CCN(CC(=O)c2c[nH]c3ccccc23)CC1`: the inhibition is active: 62.7%.

Take `CCOC(=O)CC(NC(=O)c1cc2cc(OC)ccc2oc1=O)c1ccc(OC)cc1` (stereo unspecified): the inhibition amounted to 6.43%.

Take `Cc1cccc(C(=O)Nc2nnc(S(=O)(=O)N3CCC(C)CC3)s2)c1`: the inhibition turned out to be 1.03%.

On to `COc1ccc(-c2cc(C(=O)Nc3ccc(C#N)cc3)no2)cc1`, for which the inhibition was -11.1%.

Take `O=C(CCC(=O)N1CC2CCCN2c2ccccc21)NCc1ccccc1F` (stereo unspecified): the inhibition is 4.9%.

`O=C(c1ccc(Cl)cc1)C1CCN(Cc2ccccc2)CC1`: the inhibition is active: 81.2%.

On to `Cc1ccc(S(=O)(=O)N(C)C)cc1NC(=O)C1CCN(C(=O)Nc2ccccc2)CC1`, for which the inhibition is active: 73.3%.

Take `CCCOc1ccc(C(=O)Nc2cc3nn(-c4ccc(CC)cc4)nc3cc2C)cc1`: the inhibition is 10.2%.

For the compound `O=C(CSc1nnc(-c2ccccc2)c(-c2ccccc2)n1)Nc1ccccc1Cl`, the inhibition is -8.34%.

As for `COc1ccccc1OCCCn1c(-c2ccc(Cl)cc2)nc2ccccc2c1=O`, the inhibition was -12.1%.

As to `CCC(C)Cn1c(COc2ccc(OC)cc2)nc2ccccc21` (stereo unspecified), the inhibition came to 6.19%.

In the case of `O=C(CS(=O)(=O)c1ccc(F)cc1)NCc1ccccc1`, the inhibition is active: 34.3%.

For `COc1ccc(NC(=O)Nc2nnc(SCC(=O)Nc3cccc(C)c3C)s2)cc1`, the inhibition was -2.41%.

As for `CCn1cnc2c(=O)oc3ccc(S(=O)(=O)N4CCN(c5cc(C)ccc5C)CC4)cc3c21`, the inhibition turned out to be 1.4%.

Take `O=S(=O)(NCCc1ccc(Cl)cc1)c1ccc(N2CCCCS2(=O)=O)cc1`: the inhibition is -1.67%.

For the compound `OCc1cn(-c2ccccc2)nc1-c1cc2ccccc2o1`, the inhibition was active: 44.7%.

For `COc1ccc(C2=C(C)C(=O)N(Cc3ccc(C(=O)NCc4ccccc4C)cc3)S2(=O)=O)cc1`, the inhibition was -5.05%.

In the case of `CCOc1ccc(NC(=O)CCn2c(-c3ccc(F)cc3)cc(C(C)=O)c2C)cc1`, the inhibition turned out to be 12.2%.

Regarding `Cc1ccc(C2C=C(c3ccc(Cl)cc3)Nc3nc(NC(=O)CCC(=O)O)nn32)cc1` (stereo unspecified), the inhibition was found to be 4.98%.

With `O=C(NCc1ccc(F)cc1)c1ccc2c(c1)N(Cc1ccc(F)cc1Cl)C(=O)CS2`, the inhibition was -0.775%.

`CCCSc1ncc(Cl)c(C(=O)Nc2ccc(OC)cc2OC)n1`: the inhibition was 13.7%.

Take `O=C(NCCn1cc(SCc2ccc(C(F)(F)F)cc2)c2ccccc21)c1ccccc1F`: the inhibition is 8.67%.

On to `Cc1ccc(CN2C(=O)SC(Nc3ccccc3)C2=O)cc1` (stereo unspecified), for which the inhibition was -1.07%.

Turning to `COc1cccc(CNC(=O)CCn2ccc3cc(S(=O)(=O)N4CCCC4)ccc32)c1`, the inhibition was -0.17%.

`CC(C)CCSc1nc2c(c(=O)n(C)c(=O)n2C)n1Cc1ccccc1Cl`: the inhibition was -5.41%.

In the case of `CCOC(=O)c1ccc(NC(=O)Nc2cccc(OCc3cc(=O)n4ccc(C)cc4n3)c2)cc1`, the inhibition came to 11.2%.

Consider `COc1ccc(NC(=O)CCc2nc3cccnc3n2Cc2cccs2)c(OC)c1`, for which the inhibition is 5.37%.

With `Cc1cc(N2CCN(c3ccccc3F)CC2)n2cnnc2n1`, the inhibition came to 8.47%.

Take `O=S(=O)(NCC(c1ccco1)S(=O)(=O)c1ccccc1)c1cc(F)ccc1F` (stereo unspecified): the inhibition was 24.4%.

With `Cc1cccc(-c2noc(-c3cccnc3NCc3ccccc3Cl)n2)c1`, the inhibition is -4.56%.

With `CNC(=O)C1CCC(Cn2c(=O)c3sccc3n(CC(=O)N3CCCCC3C)c2=O)CC1` (stereo unspecified), the inhibition was -7.9%.

Take `COc1cc(C2CC(=O)N(c3ccc(C)c(Cl)c3)C3=C2C(=O)OC3)cc(OC)c1OC` (stereo unspecified): the inhibition worked out at 15.5%.

Take `COc1ccccc1NC(=O)c1ccc(NC(=O)COC(=O)C2CCCO2)cc1` (stereo unspecified): the inhibition was active: 41.3%.

Take `Cc1cc(C=C2C(=O)c3ccccc3C2=O)c(C)n1-c1ccc(Cl)cc1`: the inhibition is active: 33.5%.

Take `O=C(CCS(=O)(=O)c1ccc(Br)s1)Nc1c(F)cccc1F`: the inhibition came out at 21%.

For the compound `COc1ccc(S(=O)(=O)N(Cc2nc(-c3ccccc3)no2)C2CCCCC2)cc1`, the inhibition was -3.67%.

Turning to `Fc1ccc(Nc2nc(SCc3ccc(Cl)cc3)nc3ccccc23)cc1`, the inhibition is 6.11%.

Turning to `Cc1cc(N2CCCC2)nc(N2C3CCC2CC(O)(c2ccc(F)cc2)C3)n1` (stereo unspecified), the inhibition was active: 42.2%.

As to `Cc1nc2nc(CNC(=O)c3cccc(F)c3)nn2c(C)c1CCC(=O)Nc1ccc(F)cc1`, the inhibition amounted to 12%.

As to `CCOc1ccc(NS(=O)(=O)c2ccc3[nH]cc(C(=O)N4CCCC4)c(=O)c3c2)cc1`, the inhibition is -26.8%.

Take `CC(C)c1cnc2c(c1SCc1ccc([N+](=O)[O-])cc1)c(=O)n(C)c(=O)n2C`: the inhibition was -24%.

Turning to `O=c1n(Cc2ccccc2)nc2n1-c1ccccc1OC2`, the inhibition turned out to be 23.9%.

On to `COc1cc2c(cc1OC)C(COc1ccc(F)cc1)N(C(=O)C(C)C)CC2` (stereo unspecified), for which the inhibition is -8.28%.
